Our source for the binding values is publication PMC11414387.

Amino acid sequences for entries named in this document (tags omitted). A change or cut given only in a name is not applied to a line headed by its entry. Chains listed by the source or under a name are the forms on record and can include a tag or linker.
UniProt P35222: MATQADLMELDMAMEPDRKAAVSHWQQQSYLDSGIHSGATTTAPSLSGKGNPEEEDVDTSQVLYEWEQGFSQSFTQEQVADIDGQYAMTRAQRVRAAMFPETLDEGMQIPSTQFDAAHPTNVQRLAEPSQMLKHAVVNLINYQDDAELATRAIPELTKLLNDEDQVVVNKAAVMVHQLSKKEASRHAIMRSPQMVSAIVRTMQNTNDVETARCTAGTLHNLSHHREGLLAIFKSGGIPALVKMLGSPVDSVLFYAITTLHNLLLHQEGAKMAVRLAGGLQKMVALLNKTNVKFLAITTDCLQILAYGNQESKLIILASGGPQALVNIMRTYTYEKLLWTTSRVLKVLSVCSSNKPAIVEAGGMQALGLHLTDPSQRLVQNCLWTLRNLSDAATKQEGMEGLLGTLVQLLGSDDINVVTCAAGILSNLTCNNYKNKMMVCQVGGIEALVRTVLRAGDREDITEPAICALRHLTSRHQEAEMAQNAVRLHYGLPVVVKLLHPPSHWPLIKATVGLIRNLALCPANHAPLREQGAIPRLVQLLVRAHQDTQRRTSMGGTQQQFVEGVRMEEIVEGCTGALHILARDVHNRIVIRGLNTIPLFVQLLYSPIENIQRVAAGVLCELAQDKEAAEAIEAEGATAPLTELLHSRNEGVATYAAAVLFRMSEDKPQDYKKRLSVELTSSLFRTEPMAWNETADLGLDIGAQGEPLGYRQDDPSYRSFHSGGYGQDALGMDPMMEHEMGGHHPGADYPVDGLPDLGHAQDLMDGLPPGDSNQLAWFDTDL
β-catenin S33A-37A double-point mutant (P35222, form named): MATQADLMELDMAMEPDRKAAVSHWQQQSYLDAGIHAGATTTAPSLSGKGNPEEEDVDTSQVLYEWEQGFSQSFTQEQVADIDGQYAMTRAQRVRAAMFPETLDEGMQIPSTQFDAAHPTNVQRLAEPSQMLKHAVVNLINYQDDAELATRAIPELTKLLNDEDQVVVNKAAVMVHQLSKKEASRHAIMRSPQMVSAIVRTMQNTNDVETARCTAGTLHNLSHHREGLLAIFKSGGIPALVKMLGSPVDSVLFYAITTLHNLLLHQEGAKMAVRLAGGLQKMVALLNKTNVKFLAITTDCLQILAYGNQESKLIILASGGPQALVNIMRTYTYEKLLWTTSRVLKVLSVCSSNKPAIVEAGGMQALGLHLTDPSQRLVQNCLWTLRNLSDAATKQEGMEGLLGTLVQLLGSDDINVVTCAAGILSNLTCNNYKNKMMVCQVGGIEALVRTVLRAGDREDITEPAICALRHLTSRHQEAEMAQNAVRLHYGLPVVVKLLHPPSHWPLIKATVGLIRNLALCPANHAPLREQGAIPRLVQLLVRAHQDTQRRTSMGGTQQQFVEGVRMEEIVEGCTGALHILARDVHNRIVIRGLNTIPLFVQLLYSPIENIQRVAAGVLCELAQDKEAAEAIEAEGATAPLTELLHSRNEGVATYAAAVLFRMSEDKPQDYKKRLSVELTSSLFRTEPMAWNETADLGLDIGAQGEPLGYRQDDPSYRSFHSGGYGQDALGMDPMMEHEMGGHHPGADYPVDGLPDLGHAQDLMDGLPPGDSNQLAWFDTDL
UniProt Q15208: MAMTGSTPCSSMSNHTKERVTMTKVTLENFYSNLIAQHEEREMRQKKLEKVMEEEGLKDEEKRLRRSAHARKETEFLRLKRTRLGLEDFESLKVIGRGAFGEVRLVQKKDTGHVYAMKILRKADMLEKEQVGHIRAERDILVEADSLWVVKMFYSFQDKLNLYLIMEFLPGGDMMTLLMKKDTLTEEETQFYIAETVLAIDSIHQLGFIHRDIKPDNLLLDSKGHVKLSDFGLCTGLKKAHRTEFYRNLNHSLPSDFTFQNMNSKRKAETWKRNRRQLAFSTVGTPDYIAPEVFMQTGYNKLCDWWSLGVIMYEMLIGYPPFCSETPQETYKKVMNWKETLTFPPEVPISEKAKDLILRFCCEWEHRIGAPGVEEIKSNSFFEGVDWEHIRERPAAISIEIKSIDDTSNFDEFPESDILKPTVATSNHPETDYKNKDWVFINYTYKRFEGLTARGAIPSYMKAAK

Assay [1] has as its target T1, FBXO11 (endogenous) (human (endogenous in the human cell lines of the paper; line not named for this experiment)) (UniProt Q86XK2).
T1 sequence: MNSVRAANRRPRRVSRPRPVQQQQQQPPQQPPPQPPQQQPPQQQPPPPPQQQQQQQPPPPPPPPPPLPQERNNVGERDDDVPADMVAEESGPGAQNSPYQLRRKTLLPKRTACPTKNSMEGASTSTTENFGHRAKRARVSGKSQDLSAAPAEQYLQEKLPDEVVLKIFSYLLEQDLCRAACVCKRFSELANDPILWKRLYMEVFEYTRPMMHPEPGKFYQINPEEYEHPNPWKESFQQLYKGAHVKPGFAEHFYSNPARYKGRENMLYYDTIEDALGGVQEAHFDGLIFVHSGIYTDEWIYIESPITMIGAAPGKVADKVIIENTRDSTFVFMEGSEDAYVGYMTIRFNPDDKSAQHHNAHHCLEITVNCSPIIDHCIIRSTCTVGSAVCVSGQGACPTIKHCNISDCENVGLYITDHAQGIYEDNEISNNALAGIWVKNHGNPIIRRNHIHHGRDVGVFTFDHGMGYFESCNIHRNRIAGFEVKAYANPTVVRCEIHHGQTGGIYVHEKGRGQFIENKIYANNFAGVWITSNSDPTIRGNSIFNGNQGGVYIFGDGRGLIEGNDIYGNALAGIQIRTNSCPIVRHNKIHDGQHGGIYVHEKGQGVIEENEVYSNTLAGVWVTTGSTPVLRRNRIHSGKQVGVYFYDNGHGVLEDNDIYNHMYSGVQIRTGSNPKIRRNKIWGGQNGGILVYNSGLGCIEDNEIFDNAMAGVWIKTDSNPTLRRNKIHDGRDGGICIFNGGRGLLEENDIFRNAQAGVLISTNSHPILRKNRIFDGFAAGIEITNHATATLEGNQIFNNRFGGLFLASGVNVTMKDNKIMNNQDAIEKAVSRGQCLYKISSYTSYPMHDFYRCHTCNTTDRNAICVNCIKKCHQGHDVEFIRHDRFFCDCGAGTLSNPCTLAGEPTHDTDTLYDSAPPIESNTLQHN
In words: co-IP; IP with endogenous proteins; lysate with antibody overnight at 4°C, protein A/G magnetic beads, Western blot; for NDR1 with β-catenin cells treated with MG132. A general note: In western blotting, separated proteins are transferred to a membrane and probed.

Assay [2] has as its target β-catenin (endogenous) (human (endogenous in the human cell lines of the paper; line not named for this experiment)) (UniProt P35222). In words: co-IP; IP with endogenous proteins, cells not treated with MG132; lysate with antibody overnight at 4°C, protein A/G magnetic beads, Western blot.
The target in the next assay is T2, Flag-FBXO11 (UniProt Q86XK2).
T2 sequence: T1 sequence
In words: co-IP; IP with exogenous (transfected, tagged) proteins; lysate with antibody overnight at 4°C, protein A/G magnetic beads, Western blot.

Results are given in words; binding and its absence hold for the method and conditions named. Binding seen in cells or lysates may run through a third protein. Some binding calls cover weakened binding; strength is not graded here. For some of these results: Tags and fused reporters may be left off the sequences shown.

As for “NDR1 (endogenous) (from UniProt Q15208 1-465) (enzyme)”, the binding entry in assay [1] is given as “binds”; in assay [2], “no binding (condition: without MG132 treatment)”. With “Myc-NDR1 (from UniProt Q15208 1-465) (enzyme)”, the binding entry with Flag-FBXO11 is listed as “binds”. On the same count and under the same terms, the value for “β-catenin S37A (from UniProt P35222 1-781)” was “no binding”; that for “β-catenin S33A (from UniProt P35222 1-781)” was “no binding”; that for “His-beta-catenin (from UniProt P35222 1-781)” was “binds”.

Consider “β-catenin S33A-37A double-point mutant (from UniProt P35222 1-781)”, for which the binding entry with Flag-FBXO11 is recorded as “no binding”.
